# Hit rate of the full screen: of about 48,000 compounds, about 120 (0.25%) were called active. Another 4% or so got no clear call; they are omitted. Calls come from the whole dose curve; as a rule, active = well fitted activation curve with a large enough effect; inconclusive = small, poorly fitted or top-dose-only effect, or another doubt; inactive = no such curve, though single readings can be large or run the other way. Some of the results follow.
# Experiment: Primary qHTS for Identification of Small Molecule Activators of Huntingtin-Antisense Promoter Activity; note: nearly all actives have a fitted effect of over 55% in size
# Details: HEK293 HTT-AS promoter firefly luciferase reporter, 24 h; series mostly up to 57.5 µM; activity change, positive = activation: at the top concentration
# Outline: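 Luminescence was read after Dual-Glo reagent and a 10 min room-temperature incubation. Values were normalized to vehicle (0% activity) and zero RLU (-100% activity). Reporter HEK293 cells had been exposed to compounds (up to 57.5 uM final) for 24 h.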
row,SMILES,"activity change, positive = activation"
1,CC1=C(c2ccc(C)c(C)c2)S(=O)(=O)N=C1N1CCC(C(=O)N2CCC(C)CC2)CC1,inactive: -11%
2,CCOc1cc(/C=C(\C#N)C(=O)NCC2CCCO2)ccc1O (stereo not given),inactive: 3.86%
3,Cc1ccccc1OCc1ccc(-c2nc(C#N)c(NCc3cccnc3)o2)o1,inactive: -30.3%
4,Cc1ccccc1CNC(=O)CCCn1c(=O)c2cccn2c2cccnc21,inactive: -6.06%
5,Cc1ccc(N2CC(NC(=O)c3cccs3)CC2=O)cc1C (stereo not given),inactive: -14%
6,COc1cc(NC(=O)c2cccc3c2C(=O)N(C2CCCCC2)C3)cc(OC)c1OC,inactive: -29.6%
7,Fc1ccc([C@@H]2CCNC[C@H]2COc2ccc3c(c2)OCO3)cc1,inactive
8,Oc1ccccc1-c1nc(/C=C/c2ccccc2Cl)nn1-c1ccccc1,inactive: 6.11%
9,CCOC(=O)c1c(-c2ccc(C)cc2)csc1NC(=O)c1cc(=O)c2ccc(C)cc2o1,"inactive: 1.09% [at 11.5 µM, percent change from vehicle, -100% = no light]"
10,CSc1cccc(Nc2cc(C(=O)NCCCN(C)c3ccccc3)c3ccccc3n2)c1,inactive: -32%
11,COc1ccc(NC(=O)Cn2c(=O)n(Cc3nc(-c4ccccc4)no3)c(=O)c3ccccc32)cc1Cl,inactive: -35.5%
12,COc1ccc(/C=C/C(=O)Nc2nc3n(n2)C(c2ccc(F)cc2)C=C(c2ccccc2)N3)cc1 (stereo not given),inactive: -25.8%
13,COc1cc(C(=O)n2nc(C)c(Sc3ccc(Cl)cc3)c2C)cc(OC)c1OC,inactive: -17.1%
14,CCCCCCCCCCC(CO)CCCCCCCC (stereo not given),inactive: -0.279%
15,NC(CO)C(=O)NNCc1ccc(O)c(O)c1O (stereo not given),inactive
16,COc1ccc(NC(=O)C2CCCN(S(=O)(=O)c3ccc(Br)s3)C2)cc1 (stereo not given),inactive: -25.4%
17,CC(=O)N1CCc2cc(S(=O)(=O)NC(C(=O)Nc3ccc(C)cc3C)C(C)C)ccc21 (stereo not given),inactive: -22.6%
18,CCOc1ccc(C(=O)c2oc3ccccc3c2NC(=O)Cc2coc3ccc(CC)cc23)cc1,inactive: -4.99%
19,O=C(Cc1ccc(F)cc1)Nc1nnc2n1CCS2,inactive: -9.03%
20,Cc1cccc(NC(=O)N2CCC3(CC2)Oc2ccccc2C(=O)N3Cc2ccccc2F)c1C,inactive: -6.99%
21,COc1cccc(C(=O)Nc2c(C(=O)N3CCN(c4ccc(F)cc4)CC3)oc3ccccc23)c1,inactive: -26%
22,CCc1ccc(CNC(=O)c2c(C)oc3ncnc(N4CCOCC4)c23)cc1,inactive: -30%
23,CN(C)CCCN1c2ccccc2CCc2ccccc21,inactive: -21.3%
24,C[C@H]1COc2c(N3CCN(C)CC3)c(F)cc3c(=O)c(C(=O)O)cn1c23,inactive: -1.43%

row,SMILES,"activity change, positive = activation"
1,CCc1cccc(-n2c(=O)c3cccnc3n2CC(=O)Nc2ccc(F)c(C)c2)c1,inactive: -18.1%
2,CCc1ccc2occ(CC(=O)Nc3ccccc3C(F)(F)F)c2c1,inactive: -16.3%
3,CC(C)c1ccc(Nc2cc(C(=O)NC3CCCCC3)c3ccccc3n2)cc1,inactive: -5.7%
4,Cc1cccc(N2CCN(CCNC(=O)Nc3ccc(Cl)cc3)CC2)c1C,inactive: -55.2%
5,COc1ccccc1NC(=O)CSc1nc(-c2ccc(C(C)(C)C)cc2)c(C#N)c(=O)[nH]1,inactive: -10.6%
6,CCOc1ccccc1-n1nnc(-c2nsc(NC(=O)c3ccc(C)cc3)n2)c1C,inactive: -38.6%
7,CCc1ccccc1OCC(=O)Nc1ccc(S(=O)(=O)Nc2nc(C)cc(C)n2)cc1,inactive: -10.1%
8,CCCN(C(=O)c1cc2c(=O)[nH]c3ccc(C)cc3c2s1)c1ccc(CC)cc1,inactive: -9.82%
9,CCCC(=O)OCOC(=O)C1=C(C)NC(C)=C(C(=O)OC)C1c1cccc(Cl)c1Cl (stereo not given),inactive: -5.83%
10,CCOc1ccc(CNS(=O)(=O)c2ccc3c(c2)CCCN3C(C)=O)cc1OC,inactive: -30.6%
11,CCOC(=O)C1CCCN(C(=O)c2nn(-c3ccc(C)cc3)c(=O)n(C)c2=O)C1 (stereo not given),inactive: -5.17%
12,CCc1nnc2c(N3CCN(c4cc(Cl)ccc4C)CC3)nc3ccccc3n12,inactive: 2.71%
13,COc1ccc(C2=NC(c3ccncc3)=Nc3ccc(OC)cc3N2)cc1,inactive: 4.27%
14,COc1ccc(-c2noc(N3CCC(C(=O)N4CCN(c5cccc(C)c5C)CC4)CC3)n2)cc1,inactive: -18.1%
15,COc1ccc(C2=C(C)C(=O)N(Cc3ccc(C(=O)NCc4cccc(C)c4)cc3)S2(=O)=O)cc1,inactive: -35.8%
16,COc1ccc2c(c1)c(N1CCCC1=O)c(C(=O)Nc1ccccc1C(F)(F)F)n2C,inactive: -2.97%
17,CCOc1ccc(NC(=O)CCNS(=O)(=O)c2cccc3nonc23)cc1,inactive: -2.2%
18,COc1ccc(-c2noc(COc3cc(C)ccc3C)n2)cc1OC,inactive: -8.44%
19,O=C(COc1ccc(F)cc1)Nc1ccc2nc(SCC(=O)N3CCOCC3)sc2c1,inactive: -36.1%
20,CC(C)c1ccc(N2C(=O)CSC23C(=O)N(C)c2ccccc23)cc1 (stereo not given),inactive: -11%
21,O=C1[C@@H]2CSC(c3ccc(Cl)cc3)N2C(=O)N1c1ccccc1 (stereo not given in full),inactive: -22%
22,CCOC(=O)c1c(NC(=O)c2cc(-c3cccc(OC)c3)on2)sc2c1CCCC2,inactive: -3.51%
23,COc1cccc(CNC(=O)Cc2c(C(=O)O)c(C)cn2C)c1,inactive: -2.3%
24,COc1ccc(CC(=O)NCC(c2cccs2)S(=O)(=O)c2ccc(C)cc2)cc1 (stereo not given),inactive: -16.5%

row,SMILES,"activity change, positive = activation"
1,CCc1ccc(NC(=O)Cn2c(=O)n(Cc3ccco3)c(=O)c3oc4ccccc4c32)cc1,inactive: -6.22%
2,CC(C)c1ccc(NC(=O)CN2C(=O)COc3ccc(S(=O)(=O)N4CCCCCC4)cc32)cc1,inactive: -26%
3,O=C(NCc1cccs1)c1ccc(CSc2nc3cccnc3n2Cc2ccccc2F)cc1,inactive: -19.3%
4,Cc1oc(-c2ccccc2Cl)nc1CSc1nc2ncccc2[nH]1,inactive: -6.55%
5,O=C(NCc1cccc(Cl)c1)c1ccc2nc(N3CCCCC3)sc2c1,inactive: -38%
6,CCOC(=O)c1c(C)n(-c2ccccc2)c2ccc(OC(=O)c3cccc(OC)c3OC)cc12,inactive: -25.9%
7,CCN(CC)C(=O)c1ccc(Nc2nnc(-c3ccc(C)c(S(=O)(=O)NC)c3)c3ccccc23)cc1,inactive: -44.6%
8,CCc1cccc(N2C(=O)CSC23C(=O)Nc2ccccc23)c1 (stereo not given),inactive: -11.6%
9,COc1ccc(S(=O)(=O)Nc2c(C)nc3nc(C)[nH]n3c2=O)cc1,inactive: -15.7%
10,CCOc1ccccc1CNC(=O)c1c(C)oc2ncnc(N3CCOCC3)c12,inactive: -7.16%
11,CCOc1ccc(NC(=O)CSc2ccc(-c3sc(-c4ccccc4)nc3C)nn2)cc1,inactive: 6.56%
12,CCOC(=O)c1oc2ccc(S(=O)(=O)n3nc(-c4cc(OC)c(OC)c(OC)c4)cc3N)cc2c1C,inactive: -20.4%
13,CCOC(=O)CNC(=O)Nc1cc(C(=O)NCc2ccccc2OC)ccc1N1CCCC1,inactive: 12.1%
14,Cc1ccccc1C(=O)NC1(C(F)(F)F)N=C(c2ccccc2)N(C2CCCCC2)C1=O (stereo not given),inactive: -16.1%
15,CC(C)C(=O)Nc1ccccc1OCc1cc(=O)n2ccccc2n1,inactive: -11.8%
16,CCC(Oc1ccccc1F)C(=O)N1CCC(c2nc3ccccc3s2)CC1 (stereo not given),inactive: -24.8%
17,CCOc1ccc(NC(=O)C2CCCN(c3ccc(Sc4ccc(C)cc4)nn3)C2)cc1 (stereo not given),inactive: -1.76%
18,COC(=O)C(CCSC)NC(=O)c1cc2c(n(-c3ccc(Cl)cc3)c1=O)CCCC2=O (stereo not given),inactive: -7.82%
19,O=C(NC(=O)c1ccccc1)Nc1ccc(-c2cc(C(F)(F)F)nn2-c2ccccc2)cc1,inactive: -5.18%
20,COc1ccc(Cl)cc1NC(=O)C1CCCN(c2ncnc3onc(C)c23)C1 (stereo not given),inactive: -24.7%
21,COc1ccccc1CCNC(=O)C1CCN(c2nnc(-n3cccc3CNc3ccc(C)cc3)s2)CC1,inactive: -22.7%
22,COc1ccc(Cl)cc1NC(=O)c1cn(C2CCCCC2)c(=O)c2c1c1ccccc1n2C,inactive: -7.31%
23,Cc1c(C(=O)N(Cc2ccc(N(C)C)cc2)CC2CCCO2)oc2ccc(Cl)cc12 (stereo not given),inactive: -14%
24,CCOc1ccc(Nc2nc3cc(Cl)c(Cl)cc3nc2-n2nc(C)cc2C)cc1,inactive: -5.37%

row,SMILES,"activity change, positive = activation"
1,COc1ccc(N2CCN(c3csc4ccc(Cl)cc4c3=O)CC2)cc1,inactive: 5.61%
2,COc1ccc(CNC(=O)c2cc(-c3ccc(C)cc3)nc3n[nH]c(-c4ccc(Br)cc4)c23)cc1,inactive: 11.8%
3,Cc1ccc(C)c(S(=O)(=O)c2nnn3c2nc(NC(C)C)c2sccc23)c1,inactive: -49.4%
4,O=C(O)c1ccc2nc(-c3cc4cccc(O)c4oc3=O)[nH]c2c1,inactive: -61.9%
5,NS(=O)(=O)c1ccc(NC(=O)CN2C(=O)COc3ccc(Cl)cc32)cc1,inactive: -9.32%
6,CCc1ccccc1Nc1nn2c(=O)c3ccc(C(=O)NCc4ccccc4OC)cc3nc2s1,inactive: -25.5%
7,O=C1OC(CN2CCOCC2)CN1/N=C/c1ccc([N+](=O)[O-])o1 (stereo not given),inactive: -3.63%
8,CCOC(=O)c1c(C)[nH]c(C)c1S(=O)(=O)N1CCCC(C(=O)Nc2ccc(C)cn2)C1 (stereo not given),inactive: -2.66%
9,COc1ccccc1Cn1cc(C(=O)c2ccc(C)cc2)c(=O)c2cc(C)ccc21,inactive: -0.327%
10,Cc1cnn(C)c1C(=O)Nc1cc(Nc2ccc3c(C=Cc4ccccn4)n[nH]c3c2)ccc1F,inactive: -87.1%
11,CCN(c1ccccc1)c1ccc2cc(S(=O)(=O)N3CCCC3)ccc2n1,inactive: 0.558%
12,Cc1ccc(-n2nc(CO)c(C(=O)NCCCc3ccccc3)n2)cc1C,inactive: 2.46%
13,Clc1ccc2c(c1)NC(c1ccncc1)=NC(c1cccs1)=N2,inactive: 3.36%
14,O=C1c2c(O)cc(O)cc2O[C@H](c2cc(O)c(O)c(O)c2)[C@H]1O,inactive: -3.16%
15,COc1ccc2c(c1)CCc1c(C(=O)Nc3c(C)nn(Cc4ccccc4C)c3C)noc1-2,inactive: -28.4%
16,C[C@]12C=CC(=O)C=C1CC[C@@H]1[C@@H]2[C@@H](O)C[C@@]2(C)[C@@H]1CC[C@]2(O)C(=O)CO,inactive: -11.4%
17,COc1cc(CNC(=O)c2ccc3nc(CCc4ccccc4)oc3c2)cc(OC)c1OC,inactive: -11.4%
18,CCOc1ccccc1NC(=O)C(CC(C)C)NS(=O)(=O)c1ccc2c(c1)oc(=O)n2C (stereo not given),inactive: 6%
19,COC(=O)c1c(SC)nc2ccccc2c1OCc1ccc(Cl)cc1,inactive: -22%
20,O=C(COCc1cc(-c2ccc3c(c2)OCO3)on1)N1CCN(c2cccc(Cl)c2)CC1,inactive: 2.99%
21,O=c1cc(-c2ccccc2)nc(SCc2nc(-c3ccc(Cl)cc3)no2)[nH]1,inactive: -2.26%
22,Cc1ccc(S(=O)(=O)N(Cc2nc(-c3cccc(C)c3)no2)C2CCCCC2)cc1,inactive: -24.3%
23,CNS(=O)(=O)c1cn(CC(=O)N2CCN(c3cccc(C)c3C)CC2)cc1S(=O)(=O)NC,inactive: -12.1%
